Results taken from US20260232828A1, “LIGAND-CYTOTOXICITY DRUG CONJUGATES AND PHARMACEUTICAL USES THEREOF” (HANSOH BIO LLC, priority 2023, published 2026).

How the values were obtained:
human CDH17 His Tag = molecular target: T1, human CDH17 His Tag (Homo sapiens, UniProt Q12864); test: ELISA binding of hybridoma clones to human CDH17 protein; details: hybridoma supernatant; plate coated with 1 μg/ml antigen
T1 construct: His tag; purchased Sino biological 11360-H08H
Method: (§1) ELISA was performed using the DuoSet ELISA Ancillary Kit (R&D System, DY008). ELISA plates were coated with 1 μg/ml of human CDH17 His Tag (Sino biological, catalog number 11360-H08H), or BSA overnight. Excess unbound proteins were washed off by washing the plates three times with the wash buffer before blocking for 1 hour at room temperature. 100 μl CDH17 hybridoma supernatant was added in each well and incubated for 1 hour at room temperature. Excess unbound antibodies were washed off and 100 μl of 1:30000 diluted secondary antibody Goat anti-mouse IgG Fc-HRP (ab5870) was added to each well for another 1 hour. Plates were washed before the addition 50 μL of […] (color A and color B) according to manufacturer's protocol. The reactions were stopped using 25 μL of stop solution. Optical density at 450 nm of samples was measured by a microplate reader (PerkinElmer). All tested clones bound selectively to human CDH17 but not BSA.

AsPC1 cells = test: Indirect killing assay (cell internalization) of hybridoma supernatants; assay type: cell-based, human; details: hybridoma supernatant with Fab anti-mouse IgG Fc-MMAF 20 nM, in words
Method: Cell internalization activities of hybridoma supernatants were measured using an indirect killing assay in AsPC1 cells. The AsPC1 cells were seeded in 96 well plate at 8,000 cells/well with propidium iodide (abeam, Cat #ab14083) at 500 ng/mL and SPY650-DNA (Cytoskeleton, Inc., Cat #CYSC501) at 1:2000 dilution. Cells were incubated overnight at 37° C. in 5% CO2. The hybridoma supernatants from each hybridoma clone were diluted with hybridoma culture medium containing 500 ng/mL propidium iodide and 2000-fold diluted SPY650-DNA and mixed with Fab anti-mouse IgG Fc-MMAF conjugates with cleavable linker (Moradec, AM-202AF), then added to each well. The final concentrations of mouse IgG were roughly 10 nM, 3.33 nM, and 1.11 nM. The final concentration of the Fab anti-mouse IgG Fc-MMAF conjugates in each well was 20 nM. With the presence of secondary Fab-vc-MMAF, the internalized antibody/Fab-vc-MMAF conjugates complex will release the cytotoxic payload and kill the cells. Cytation5 (Agilent) was used to detect the viability of the cells in each well by imaging the plates every 8 h.
A purified anti-human CDH17 antibody was used as a positive control (Invitrogen, Cat #MA5-29135). A purified mouse IgG1 antibody was used as isotype control (Biolegend, Cat #400102).

BSA = BSA (Bos taurus, UniProt P02769); test: ELISA binding of hybridoma clones to BSA (specificity control); details: hybridoma supernatant; plate coated with BSA
Sequence of BSA (P02769 25-607): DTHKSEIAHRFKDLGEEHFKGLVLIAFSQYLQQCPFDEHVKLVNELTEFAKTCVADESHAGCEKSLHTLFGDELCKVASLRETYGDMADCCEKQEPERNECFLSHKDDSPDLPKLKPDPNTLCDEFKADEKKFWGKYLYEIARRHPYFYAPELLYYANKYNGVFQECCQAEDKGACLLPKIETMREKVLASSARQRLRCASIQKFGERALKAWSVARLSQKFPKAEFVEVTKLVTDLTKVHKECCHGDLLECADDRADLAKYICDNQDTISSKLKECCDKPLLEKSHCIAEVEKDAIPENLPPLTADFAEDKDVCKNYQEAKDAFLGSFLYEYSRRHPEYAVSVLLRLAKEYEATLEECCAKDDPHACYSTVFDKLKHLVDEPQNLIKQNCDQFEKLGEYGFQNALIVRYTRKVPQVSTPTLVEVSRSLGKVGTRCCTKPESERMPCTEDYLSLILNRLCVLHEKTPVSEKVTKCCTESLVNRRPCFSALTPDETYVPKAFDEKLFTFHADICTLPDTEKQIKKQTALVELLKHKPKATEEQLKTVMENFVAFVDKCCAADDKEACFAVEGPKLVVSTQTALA
Method: as §1

[1] = system: CDH17 positive cell line AsPC1, GP2d and CDH17 negative cell line SW480; test: Flow cytometry binding of hybridoma supernatants to CDH17 expressing cancer cells; parameters: species or system human; details: undiluted hybridoma supernatant, in words
Method: Hybridoma supernatants were subjected to binding tests on CDH17 positive cell line AsPC1 (ATCC, CRL-1682), GP2d (Creative bioarray, CSC-J9456), and CDH17 negative cell line SW480 (ATCC, CCL-228) using flow cytometry analysis. Briefly, 50 μL of cells in cell staining buffer (2×10^6 cells/mL) was mixed with 50 μL undiluted supernatants. The mixture was incubated on ice for 1 hour and then washed with ice-cold staining buffer twice. The cells were subsequently stained with 50 μL of PE labeled secondary antibody (1:250 dilution, Biolegend, Cat #405307) for 20 min. After washing by staining buffer and fixing by 4% PFA, cells were analyzed by flow cytometry.
A purified anti-human CDH17 antibody was used as a positive control (Sino Biological, Cat #11360-MM02). A purified mouse IgG1 antibody was used as isotype control (Biolegend, Cat #400102).

Protein binding (human CDH17) (human CDH17 His Tag) | Protein binding (BSA) (BSA) | Molecule | cell internalization activity (AsPC1 cells) | binding profile to CDH17 positive versus negative cells [1]
1.4804 OD450 | 0.0429 OD450 | 9E2: anti-CDH17 antibody; SEQ ID NO 83 (heavy chain) and 84 (light chain) (antibody, listed as Homo sapiens) heavy: EVQLVESGGGVVRPGGSLRLSCAASGFTFDNYGMSWVRQAPGKGLEWVSGINWNGGSTYYADSVRGRFTISRDNAKNSLYLQMNSLRAEDTALYYCARGSRYNWSYDAFDIWGQGTLVTVSS[letters of human IgG1 constant region omitted] light: DIQMTQSPSSLSASVGDRVTITCRASQGVRNALGWYQQKPGKAPKRLIYAASSLQSGVPSRFSGSGSGTEFTLTISSLQPEDFATYYCLQHNSYPFTFGPGTKVEIKRTVAAPSVFIFPPSDEQLKSGTASVVCLLNNFYPREAKVQWKVDNALQSGNSQESVTEQDSKDSTYSLSSTLTLSKADYEKHKVYACEVTHQGLSSPVTKSFNRGEC | capable of internalizing into CDH17 positive cell line | enhanced binding profile to AsPC1 cells and GP2d cells compared to SW480 cells
1.663 OD450 | 0.0425 OD450 | 17F3: anti-CDH17 antibody; SEQ ID NO 93 (heavy chain) and 94 (light chain) (antibody, listed as Homo sapiens) heavy: EVQLVESGGGLVKSGGSLRLSCAASGFTFSSYSLKWVRQAPGKGLEWVSSISSSSGYIYYADSVKGRFTISRDNAKNSLYLQMNSLRAEDTAMYYCARAVSTIAARPGYYYYYMDVWGKGTLVTVSS[letters of human IgG1 constant region omitted] light: DIQMTQSPSSVSASIGDRVTITCRASQDISTWFAWYQQKPGKAPKLLIYAASTLRSGVPSRFSGSGSGTDFTLTINSLQPEDFATYYCQQANSFPLTFGGGTKVEIKRTVAAPSVFIFPPSDEQLKSGTASVVCLLNNFYPREAKVQWKVDNALQSGNSQESVTEQDSKDSTYSLSSTLTLSKADYEKHKVYACEVTHQGLSSPVTKSFNRGEC | capable of internalizing into CDH17 positive cell line | enhanced binding profile to AsPC1 cells and GP2d cells compared to SW480 cells
1.5202 OD450 | 0.051 OD450 | 4F9: anti-CDH17 antibody; SEQ ID NO 81 (heavy chain) and 82 (light chain) (antibody, listed as Homo sapiens) heavy: QVQLQESGPGLVKPSGTLSLTCAVSGGSISSSNWWSWVRQPPGKGLEWIGEIYHSGSTSYNPSLKSRVTISVDKSKNQFSLKLSSVTAADTAVYYCARNDWGFPLDCWGQGTLVTVSS[letters of human IgG1 constant region omitted] light: DIQMTQSPSSLSASVGDRVTITCRASQSISSYLNWYQQKPGKAPKLLIYAASSLQSGVPSRFSGSGSGTHFTLTISSLQPEDFATYYCQQSHNIPITFGQGTRLEIKRTVAAPSVFIFPPSDEQLKSGTASVVCLLNNFYPREAKVQWKVDNALQSGNSQESVTEQDSKDSTYSLSSTLTLSKADYEKHKVYACEVTHQGLSSPVTKSFNRGEC | capable of internalizing into CDH17 positive cell line | enhanced binding profile to AsPC1 cells and GP2d cells compared to SW480 cells
1.6185 OD450 | 0.0432 OD450 | 13C7: anti-CDH17 antibody; SEQ ID NO 87 (heavy chain) and 88 (light chain) (antibody, listed as Homo sapiens) heavy: QITLKESGPTLVKPTQTLTLTCTFSGFSLSTSGVGVGWIRQPPGKALEWLALIYWNDDKRYRPSLKNRLTITKDTSKNQVVLTMTNMDPVDTATYYCTHYGVTAPFYNWFDPWGQGTLVTVSS[letters of human IgG1 constant region omitted] light: DIQMTQSPSSLSASVGDRVTITCRASQSITSYLNWYQQKPGKAPKLLIYAASSLQSGVPSRFSGSGSGTDFTLTISSLQPEDFATYYCQRSYSTLTFGGGTKVEIKRTVAAPSVFIFPPSDEQLKSGTASVVCLLNNFYPREAKVQWKVDNALQSGNSQESVTEQDSKDSTYSLSSTLTLSKADYEKHKVYACEVTHQGLSSPVTKSFNRGEC | capable of internalizing into CDH17 positive cell line | enhanced binding profile to AsPC1 cells and GP2d cells compared to SW480 cells
